# According to PubChem BioAssay AID1030 (National Center for Advancing Translational Sciences (NCATS), 2008):
# About 16,000 (7.3%) of roughly 220,000 compounds were called active. This list was built around the results that the source calls inconclusive (neither active nor inactive); the mix of calls is not that of the screen. Calls come from the whole dose curve; as a rule, active = well fitted inhibition curve with a large enough effect (not every such curve was filed as active); inconclusive = small, poorly fitted or top-dose-only effect, or another doubt; inactive = no such curve, though single readings can be large or run the other way. Potencies of inconclusive entries are left out as doubtful fits.
# Target: Aldehyde dehydrogenase 1A1 (Homo sapiens) (UniProt P00352)
# Experiment: qHTS Assay for Inhibitors of Aldehyde Dehydrogenase 1 (ALDH1A1);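 for activity, negative = inhibition: plate controls were no enzyme wells and a reference inhibitor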
# Conditions: Purified ALDH1A1, NADH fluorescence, propionaldehyde substrate; series mostly up to 75.3 µM
# Potency is the fitted concentration of half-maximal effect; tags give direction and shape of the fitted curve.
# Chain of UniProt P00352 (P00352 whole entry, looked up): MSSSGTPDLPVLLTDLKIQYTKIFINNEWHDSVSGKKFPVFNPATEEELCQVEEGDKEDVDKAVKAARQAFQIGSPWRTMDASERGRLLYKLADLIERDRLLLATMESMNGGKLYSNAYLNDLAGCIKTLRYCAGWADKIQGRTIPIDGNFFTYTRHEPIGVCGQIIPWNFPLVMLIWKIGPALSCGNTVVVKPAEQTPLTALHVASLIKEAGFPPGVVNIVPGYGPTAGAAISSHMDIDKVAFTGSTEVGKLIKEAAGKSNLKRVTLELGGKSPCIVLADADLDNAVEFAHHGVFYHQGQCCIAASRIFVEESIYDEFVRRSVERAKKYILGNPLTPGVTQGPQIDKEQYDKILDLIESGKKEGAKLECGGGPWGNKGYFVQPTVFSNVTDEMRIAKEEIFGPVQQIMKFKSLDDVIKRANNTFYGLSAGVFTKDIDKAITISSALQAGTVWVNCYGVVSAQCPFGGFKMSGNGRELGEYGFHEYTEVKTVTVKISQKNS
SMILES,Potency,"activity, negative = inhibition"
Cc1nc(N2CCN(c3ccccc3)CC2)nc2c1C(=O)CC(c1ccccc1)C2 (stereo not drawn),"inconclusive [inhibitor, single point]",–
COc1ccc(NC2CCN(C3CC(=O)N(c4ccc(F)c(Cl)c4)C3=O)CC2)cc1 (stereo not drawn),active: 1.12 µM,–
CCOC(=O)C1CCN(C(=O)Cc2cccs2)CC1,inactive,–
COc1ccc(NS(=O)(=O)c2ccc3nc(COc4cccc5ccccc45)[nH]c3c2)cc1,active: 22.4 µM,–
O=C1C2CCCN2C(=O)N1CCCCN1CCN(c2ccccc2)CC1 (stereo not drawn),inactive,–
COc1ccc(N2C(=O)[C@H]3CCC=C[C@H]3[C@@H]2c2ccccc2Br)cc1,active: 7.08 µM,–
CCc1cc(SC#N)cc(CC)c1NC(=O)CCl,active: 14.1 µM,–
O=C(CCC(=O)Nc1ccccc1)N/N=C/c1ccccc1F,inactive,–
O=C(CN1CCCCC1)Nc1ccccc1-c1ccccc1,active: 18.9 µM,–
Nc1ccc2c(c1)Oc1ccccc1C=C2,"inconclusive [inhibitor, single point]",–
O=C(Nc1ccc(N2CCCCC2)cc1)c1ccccn1,inactive,–
COc1ccc(NC(=O)CSCC(=O)N2c3ccccc3CCc3ccccc32)cc1,"inconclusive [inhibitor, single point]",–
COc1ccc(OCC(=O)NC(=S)NNC(=O)COc2ccc(Br)cc2Cl)cc1,active: 11.2 µM,–
CCCCNC(=S)NNC(=O)c1c(C)nc2ccccn12,"inconclusive [inhibitor, partial curve]",–
CCC(=O)Nc1cccc(NC(=S)NC(=O)c2ccc(Cl)cc2)c1,"inconclusive [inhibitor, single point]",–
C(=N\NC1=Nc2cccc3cccc1c23)/c1ccccn1,inactive,–
Cc1ccc2[nH]c(=O)c3cc(C(=O)N4CCN(C(=O)c5ccco5)CC4)sc3c2c1,"inconclusive [inhibitor, partial curve]",–
CCOC(=O)c1c(NC(=O)C2=C(C)NC(=S)NC2c2ccc(C)cc2)sc(C)c1C (stereo not drawn),"inconclusive [inhibitor, partial curve]",–
CCN(CC(=O)NCc1cccs1)c1ccc(S(=O)(=O)N2CCN(C)CC2)cn1,"inconclusive [inhibitor, single point]",–
COc1ccc(S(=O)(=O)NN=C2CCCC2)cc1,"inconclusive [inhibitor, single point]",–
CC1(C)Oc2ccc3ccc(=O)oc3c2CC1=O,"inconclusive [inhibitor, partial curve]",–
CCN1C(=O)[C@H]2[C@H]3[C@H](O)[C@H](O)C/C(=N/O[C@@H](C)c4cn([C@H]5COC[C@H]5O)nn4)[C@@H]3CC[C@@H]2C1=O,–,inactive: 4.03% [at 13.5 µM]
Brc1ccc(N/N=C(/N=Nc2nn[nH]n2)c2ccccc2)cc1,active: 14.1 µM,–
C/C(=N\N=C(/N)SC1CC(=O)N(c2cccc(Cl)c2)C1=O)c1cccs1 (stereo not drawn),inactive,–

SMILES,Potency,"activity, negative = inhibition"
CC(=O)OC[C@H]1O[C@@H](Sc2cccc3cccnc23)[C@H](OC(C)=O)[C@@H](OC(C)=O)[C@H]1OC(C)=O,"inconclusive [inhibitor, single point]",–
COC(=O)c1cccc(Cn2c(Cl)c(/C=N/NC(=O)c3ccccc3Cl)sc2=O)c1,"inconclusive [inhibitor, single point]",–
COc1ccc(/C=N/N=C2/NC(=O)CC(C(=O)O)S2)cc1 (stereo not drawn),inactive,–
CC(NC(=O)c1ccccc1)c1ccc(Br)cc1 (stereo not drawn),inactive,–
COc1ccc(N(CCCN2C(=O)c3cccc4cccc(c34)C2=O)C(=O)c2cccc(OC)c2)cc1,active: 8.91 µM,–
CCCn1nc2cc(C(=O)NCc3ccc4c(c3)OCO4)ccc2c1OCC,"inconclusive [inhibitor, single point]",–
Cc1ccc2c(c1)c1c(n2CC2COC(C)(C)O2)C(=O)CCC1 (stereo not drawn),"inconclusive [inhibitor, single point]",–
COc1cccc(N2CCN(C(=O)Nc3ccccc3Cl)CC2)c1,inactive,–
C=CCNC(=O)c1ccccc1NC(=O)c1ccc(Cl)c(S(=O)(=O)Nc2ccccc2)c1,"inconclusive [inhibitor, single point]",–
CC(C)n1cnc2c(=S)nc[nH]c21,"inconclusive [inhibitor, single point]",–
CCC(=O)c1ccc(N2CCCC2)c(F)c1,inactive,–
CN(C)c1ccc(P(=O)(Nc2cccc(C(F)(F)F)c2)N2CCOCC2)c(NC(=O)c2cccs2)c1 (stereo not drawn),"inconclusive [inhibitor, single point]",–
O=C(N/N=C/c1ccc(F)cc1)c1ccc(Br)cc1,inactive,–
CCOC(=O)c1sc(NC(=O)/C=C/c2cnn(C)c2C)c(C(=O)OC(C)C)c1C,"inconclusive [inhibitor, full curve]",–
CCCCn1nc(C(=O)NC2=NCCS2)c2ccccc2c1=O,"inconclusive [inhibitor, partial curve]",–
N#Cc1c(N)nc2c3c(sc(=N)c2c1N)NC(=O)CC3c1c(F)cccc1Cl (stereo not drawn),"inconclusive [inhibitor, full curve]",–
COc1ccc(CCCc2nnc(SCc3nc4ccccc4c(=O)[nH]3)n2C)cc1,inactive,–
O=C(CN1C(=O)C2(OCCO2)c2ccccc21)c1ccc(Br)cc1,active: 14.1 µM,–
CC/C(=C\c1oc2cc3ccccc3cc2[n+]1CC)Nc1ccccc1,"inconclusive [inhibitor, partial curve]",–
CC1CCC/C(=C\Nc2ccc3c(c2)OCO3)C1=O (stereo not drawn),active: 12.6 µM,–
O=C(O)Cn1cccc1C(=O)c1ccccc1,active: 14.1 µM,–
CCCSc1oc(-c2ccco2)nc1S(=O)(=O)c1ccccc1,"inconclusive [inhibitor, single point]",–
COc1cc(CN2CCc3ccccc3C2)ccc1O,"inconclusive [inhibitor, partial curve]",–
COc1ccc(C(=O)Nc2ccc(Cl)cc2C(=O)N2CCCC(C)C2)cc1 (stereo not drawn),"inconclusive [inhibitor, partial curve]",–
